Source: paper PMC6739345, “CAND1 regulates lunapark for the proper tubular network of the endoplasmic reticulum” (Scientific Reports, 2019)
No constants are given. Whether binding was seen depends on the method and setting. For part of these data: Binding seen in cells or lysates may run through a third protein. Some binding calls cover weakened binding; strength is not graded here. For part of these data: Sequences can lack the tags named with a protein.

Amino acid sequences for entries named in this document (tags omitted). A change or cut given only in a name is not applied to a line headed by its entry. Residues count along the entry.
UniProt Q9UKV5: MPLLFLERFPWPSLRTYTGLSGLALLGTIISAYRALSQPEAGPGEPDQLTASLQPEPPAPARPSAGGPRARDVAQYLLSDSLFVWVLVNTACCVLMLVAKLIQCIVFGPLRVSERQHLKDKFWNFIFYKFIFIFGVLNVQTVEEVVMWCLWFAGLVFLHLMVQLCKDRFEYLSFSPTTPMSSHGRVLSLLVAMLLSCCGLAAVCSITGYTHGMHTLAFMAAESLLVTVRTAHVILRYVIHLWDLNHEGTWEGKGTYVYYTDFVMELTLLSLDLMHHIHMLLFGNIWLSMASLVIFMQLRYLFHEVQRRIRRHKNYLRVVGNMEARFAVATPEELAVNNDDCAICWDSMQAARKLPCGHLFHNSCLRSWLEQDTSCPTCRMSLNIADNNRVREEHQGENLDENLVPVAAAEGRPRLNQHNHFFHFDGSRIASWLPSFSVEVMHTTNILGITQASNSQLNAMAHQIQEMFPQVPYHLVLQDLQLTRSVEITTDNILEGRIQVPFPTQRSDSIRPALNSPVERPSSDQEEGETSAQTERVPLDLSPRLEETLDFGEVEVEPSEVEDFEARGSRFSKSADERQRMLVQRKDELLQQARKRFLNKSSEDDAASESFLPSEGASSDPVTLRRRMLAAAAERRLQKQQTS
UniProt Q9C0E8: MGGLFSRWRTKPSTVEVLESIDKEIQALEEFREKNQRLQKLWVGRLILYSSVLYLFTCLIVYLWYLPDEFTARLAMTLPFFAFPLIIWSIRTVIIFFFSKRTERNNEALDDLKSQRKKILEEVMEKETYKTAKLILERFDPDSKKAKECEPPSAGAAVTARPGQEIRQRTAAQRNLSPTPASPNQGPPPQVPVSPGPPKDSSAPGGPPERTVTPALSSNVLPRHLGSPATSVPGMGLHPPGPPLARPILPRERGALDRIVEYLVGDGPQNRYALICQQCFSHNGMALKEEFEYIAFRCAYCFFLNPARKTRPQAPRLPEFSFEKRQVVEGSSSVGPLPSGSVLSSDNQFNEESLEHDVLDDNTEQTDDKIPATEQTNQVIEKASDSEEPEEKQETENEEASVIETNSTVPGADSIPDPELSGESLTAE
GST-Lnp Ub (N-terminal ubiquitin ligase domain of Lnp): residues 1-45 of Q9C0E8

Tests used:
[1] = target: gp78-myc (human) (UniProt Q9UKV5); experiment: co-IP; HEK293 cells transfected with Lnp-FLAG, HA-CAND1 and gp78-myc together; NP-40 extracts (buffer F) immunoprecipitated with anti-myc mAb or anti-HA mAb, 4 °C 3 h; immunoblot
[2] = target: HA-tagged CAND1 (human) (UniProt Q86VP6); experiment: co-IP; HEK293 cells transfected with Lnp-FLAG and HA-CAND1; NP-40 extracts (buffer F) immunoprecipitated with anti-HA mAb, 4 °C 3 h; immunoblot
[3] = target: HA-tagged CAND1 (human) (UniProt Q86VP6); experiment: co-IP; HEK293 cells transfected with Lnp-FLAG, HA-CAND1 and gp78-myc together; NP-40 extracts (buffer F) immunoprecipitated with anti-myc mAb or anti-HA mAb, 4 °C 3 h; immunoblot
[4] = target: endogenous CAND1 of HeLa cells (human (endogenous in HeLa)) (UniProt Q86VP6); experiment: co-IP; endogenous proteins; NP-40 extract of HeLa cells (buffer F) immunoprecipitated with anti-CAND1 mAb or mouse control IgG, 4 °C overnight; immunoblot
[5] = target: T1, GST-Rtn3c (mouse) (UniProt Q9ES97); experiment: pull-down; GST-Lnp or GST-Rtn3c (1 nmol) immobilised on glutathione Sepharose, incubated with MBP-CAND1 or MBP alone (10 nmol) in buffer G (50 mM Tris-HCl pH 8.0, 150 mM NaCl, 1% Triton X-100) with 10 mM imidazole, 4 °C 2 h; CBB staining; both purified
T1 sequence: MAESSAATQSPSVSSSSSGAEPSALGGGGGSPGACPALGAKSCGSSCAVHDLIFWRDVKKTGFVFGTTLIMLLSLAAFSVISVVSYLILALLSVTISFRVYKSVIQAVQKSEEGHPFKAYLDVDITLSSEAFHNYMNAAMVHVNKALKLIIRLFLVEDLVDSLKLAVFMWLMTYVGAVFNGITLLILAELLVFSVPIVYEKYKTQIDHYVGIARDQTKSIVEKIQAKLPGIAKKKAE

[6] = target: GST-Lnp Ub (N-terminal ubiquitin ligase domain of Lnp) (human) (UniProt Q9C0E8); experiment: pull-down; GST-Lnp or GST-Lnp Ub (0.6 nmol) immobilised on glutathione Sepharose, incubated with MBP-CAND1 (6 nmol) in buffer A with 1% Triton X-100, 4 °C 2 h; CBB staining; both purified
[7] = target: T2, MBP-fused CAND1 (human, UniProt Q86VP6 1-1230); experiment: pull-down; reciprocal: MBP-CAND1 (0.6 nmol) immobilised on amylose resin, incubated with GST-Lnp or GST-Rtn3c (3 nmol) in buffer A with 1% Triton X-100, 4 °C 2 h; CBB staining; both purified
T2 construct: Cullin-associated and neddylation-dissociated 1 (CAND1), human; cDNA bought from the Kazusa DNA Research Institute, in pMAL-C2; also called MBP-CAND1; source: E. coli Rosetta-Gami, purified (amylose resin, eluted with maltose)
T2 sequence (looked up): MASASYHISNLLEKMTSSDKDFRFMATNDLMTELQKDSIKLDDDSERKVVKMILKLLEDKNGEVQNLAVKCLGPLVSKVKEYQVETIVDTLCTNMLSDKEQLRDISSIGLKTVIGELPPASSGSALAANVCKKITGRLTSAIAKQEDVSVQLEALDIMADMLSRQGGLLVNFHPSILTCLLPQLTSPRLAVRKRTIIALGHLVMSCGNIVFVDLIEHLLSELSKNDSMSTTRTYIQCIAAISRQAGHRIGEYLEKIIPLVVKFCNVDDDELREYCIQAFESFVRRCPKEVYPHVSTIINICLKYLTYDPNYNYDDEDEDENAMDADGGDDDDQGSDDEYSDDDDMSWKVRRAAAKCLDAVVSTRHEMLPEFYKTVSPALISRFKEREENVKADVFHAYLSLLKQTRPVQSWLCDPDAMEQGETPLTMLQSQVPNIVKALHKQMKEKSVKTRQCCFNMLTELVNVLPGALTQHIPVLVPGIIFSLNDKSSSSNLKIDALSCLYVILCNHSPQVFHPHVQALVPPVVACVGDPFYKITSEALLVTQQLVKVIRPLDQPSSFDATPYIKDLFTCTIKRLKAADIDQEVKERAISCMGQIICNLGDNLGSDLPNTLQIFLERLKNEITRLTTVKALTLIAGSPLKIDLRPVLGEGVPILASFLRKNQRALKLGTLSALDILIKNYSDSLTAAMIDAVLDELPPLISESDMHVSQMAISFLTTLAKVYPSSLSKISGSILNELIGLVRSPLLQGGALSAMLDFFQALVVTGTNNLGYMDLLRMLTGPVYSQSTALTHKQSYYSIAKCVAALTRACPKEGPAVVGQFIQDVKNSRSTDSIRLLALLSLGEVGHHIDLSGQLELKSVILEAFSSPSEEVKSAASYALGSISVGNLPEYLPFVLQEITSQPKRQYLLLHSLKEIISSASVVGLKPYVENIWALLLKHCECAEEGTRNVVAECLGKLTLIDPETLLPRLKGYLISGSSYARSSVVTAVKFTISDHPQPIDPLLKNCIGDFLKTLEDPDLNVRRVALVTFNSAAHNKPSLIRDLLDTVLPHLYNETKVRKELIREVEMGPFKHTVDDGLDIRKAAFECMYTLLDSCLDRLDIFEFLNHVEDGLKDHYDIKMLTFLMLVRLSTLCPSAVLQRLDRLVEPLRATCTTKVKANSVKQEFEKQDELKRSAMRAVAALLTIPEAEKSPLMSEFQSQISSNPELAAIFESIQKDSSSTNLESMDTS

How did the binding [1] turn out when “HA-tagged CAND1 (from UniProt Q86VP6 1-1230)” was run?
Its binding is “no binding”.

Which binding [2] does the source give for “C-terminal FLAG-tagged Lnp (from UniProt Q9C0E8 1-428)” here?
Its binding is “binds”.

And the binding [3]?
Its binding is “binds”.

And the binding [1]?
Its binding is “binds”.

Which binding [3] does the source give for gp78-myc (from UniProt Q9UKV5 1-643) here?
Its binding is “no binding”.

With “endogenous Lnp of HeLa cells (from UniProt Q9C0E8 1-428)” as the molecule, how does the binding [4] read?
Its binding is “binds”.

How did the binding [5] turn out when “MBP-fused CAND1 (from UniProt Q86VP6 1-1230)” was run?
The binding was “no binding (tested: MBP-CAND1 10 nmol on GST-Rtn3c 1 nmol)”.

What about the binding [6] of the same molecule?
The binding was “no binding (tested: MBP-CAND1 6 nmol on GST-Lnp Ub 0.6 nmol)”.

B1: GST-Rtn3c (protein, UniProt Q9ES97-3 1-237)
chain: T1 sequence
How did the binding [7] turn out when B1 was run?
Its binding is “no binding (tested: GST-Rtn3c 3 nmol on MBP-CAND1 0.6 nmol)”.
